Experimental data reported in PubChem BioAssay (NCATS).
Where “and” joins values, the source holds several entries; their conditions need not be identical. Equal entries are not always repeated. The shares of active, inactive and inconclusive entries below differ from those in the screen. Potencies of inconclusive entries are doubtful fits and often do not repeat. Calls of active or inactive are those of the source. The call rests on the fitted dose curve; in most records, active means well fitted cell-killing curve with a large enough effect; inconclusive means small, poorly fitted or top-dose-only effect; inactive means flat fitted curve, though single readings scatter.
On the % scale 0 is the no-effect control and ±100 the full control effect; tags describe the fitted curve by direction and shape.

Assay: Cellular viability qHTS for adrenocortical cancer (ACC) cell line SW-13 (AID 1963989); further: nearly all actives have a fitted effect of over 65% in size;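 on activity (max response): cells grown in serum-free medium with ITS supplement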
Details: SW-13 ACC cells viability, CellTiter-Glo, 48 h; activity (max response): hits give low values
From the text: PI: Naris Nilubol, MD Surgical Oncology Program, National Cancer Institute (NCI) National Institute of Health (NIH), Bethesda, Maryland Adrenocortical cancer (ACC) is a rare malignancy with poor survival outcomes and few treatment options. Currently, mitotane is the only FDA-approved therapy for ACC. Although adjuvant radiation therapy is rarely utilized, it has the potential to improve survival in select cases. Through a quantitative high-throughput drug screen (qHTS), we identified auranofin (AF), a thioredoxin reductase (TXNRD) inhibitor, as a promising candidate drug. This study aims to evaluate whether AF can enhance the efficacy of radiation therapy in the treatment of ACC. Two human ACC cell lines, SW-13 and NCI-H295R, were screened using the National Center for Advancing Translational Sciences (NCATS) Pharmaceutical Collection (NPC) and the Mechanism Interrogation PlatE (MIPE) library (~4,991 compounds). CellTiter-Glo (Cat # G7570, Promega, Madison, WI) was utilized to measure cell viability. Described herein are the results of the corresponding viability assay.
PROTOCOL TABLE (as described by Inglese J, Shamu CE and Guy RK. 2007) SEQUENCE No. (e.g., 1, 2, 3, etc.); […] (e.g., Cells, Incubation, Reagent, etc.); VALUE; DESCRIPTION. 1; Cells; 5 uL; white, solid-bottom, 1536-well tissue-culture treated plates. 2; Time; overnight culture at 37C with 5% CO2. 3; Compounds and control; 23 nL; Kalypsis pin tool (Wako USA) equipped with a 1536-well pin head to transfer to the assay plates. 4; Time; 48 hours; 37C with 5% CO2. 5; Reagent; 4 uL; CellTiter-Glo luminescent substrate mix. 6; Time; 20 min at room temperature. 7; Detection; Luminescence; ViewLux plate reader NOTES (numbers refer to Sequence numbers above) 1. SW13 cells were harvested from a T175 flask and resuspended in ITS-supplemented DMEM serum-free medium at a concentration of 300 000 cells/mL. Then 5 uL of resuspended cells were dispensed into each well of white, solid-bottom, 1536-well tissue-culture-treated plates using a multidrop combi dispenser. The plates were covered with stainless steel gasket lids. 2-3. The plates were cultured overnight at 37C with 5% CO2. Twenty-three nL of compounds (eight selected concentrations from the NPC / MIPE) or positive control (10 mM stock of bortezomib) in DMSO was transferred to each well of the assay plate using a pin tool (Kalypsys, San Diego, CA, USA). The final concentration of the compounds in the 5 uL assay volume ranged from 0.5 nM to 46 uM. 4-6. After 48 hours of incubation at 37C and 5% CO2, 4 uL of CellTilter-Glo luminescent substrate mix (Promega, Madison, WI, USA) was added to each well. Then the plates were incubated for 20 minutes at room temperature. 7. After incubation, luminescence was measured using a ViewLux plate reader (PerkinElmer, Waltham, MA, USA) with a clear filter was used to measure the number of metabolically competent cells. To determine compound activity in the qHTS assay, the titration-response data for each sample was plotted and modeled by a four-parameter logistic fit yielding IC50 and efficacy (maximal response) values. […] REFERENCES: Inglese J, Shamu CE and Guy RK, Reporting data from high throughput screening of small molecule libraries, Nature Chemical Biology, 2007, 3(8): 438-441. doi.org/10.1038/nchembio0807-438.
For `COc1nccc(-c2c(-c3ccc(F)cc3)ncn2C2CCNCC2)n1`, the activity (max response) was inactive: -17.6%.
For `O=c1[nH]c2cc(C(F)(F)F)c(N3CCOCC3)cc2n(CP(=O)(O)O)c1=O`, the Potency was inconclusive: 29.1 µM [cytotoxic, single point].
In the case of `O=C1c2ccccc2-[n+]2ccc3c([nH]c4ccccc43)c21`, the Potency is reported as active: 2.82 µM.
In the case of `CCc1nn(CCCN2CCN(c3cccc(Cl)c3)CC2)c(=O)n1CCOc1ccccc1`, the Potency is reported as active: 14.6 µM.
With `O=C(Nc1nc2ccccc2n1CCN1CCOCC1)c1cccc([N+](=O)[O-])c1` the activity (max response) was inactive: 3.94%.
In the case of `OC(CCN1CCCCC1)(c1ccccc1)C1CCCCC1` (stereo not given), the Potency is reported as inconclusive: 20.6 µM [cytotoxic, partial curve].
With `CCCNCC(O)COc1ccccc1C(=O)CCc1ccccc1` (stereo not given) the Potency was inconclusive: 20.6 µM [cytotoxic, partial curve, poor fit] and inconclusive: 31.6 µM [cytotoxic, single point].
With `Cc1nc2sccn2c(=O)c1CCN1CCC(=C(c2ccc(F)cc2)c2ccc(F)cc2)CC1` the Potency was inconclusive: 23.1 µM [cytotoxic, single point].
For `O=c1[nH]cc(F)c(=O)[nH]1`, the Potency was inconclusive: 23.1 µM [cytotoxic, single point].
For `COc1ccc(S(=O)(=O)N[C@@H](CNc2nc(C)nc(N3CCC(c4ccc5c(n4)NCCC5)CC3)c2C)C(=O)O)cc1`, the Potency was inconclusive: 0.0501 µM [cytotoxic, full curve].
For `Cc1cc(C)cc(Oc2ccc(CNC(=O)[C@H](C)N)cc2C)c1`, the Potency was inconclusive: 35.5 µM [cytotoxic, single point].
With `Nc1ccc(C(=O)c2cc3c(ccc4ccccc43)[nH]2)cc1` the Potency was active: 2.24 µM.
In the case of `C=CC(=O)Nc1cccc(Nc2nc(Nc3ccc(NC4CN(CCF)C4)cc3OC)ncc2C(F)(F)F)c1`, the Potency is reported as active: 2.51 µM.
In the case of `C/C=C/C(=O)N(CC)c1ccccc1C`, the activity (max response) is reported as inactive: 5.92% and inactive: 3.5%.
For `O=C(NCCO[N+](=O)[O-])c1cccnc1`, the activity (max response) was inactive: 2.63% and inactive: 5.13%.
For `CCCCOc1ccc(OCCCN2CCOCC2)cc1`, the Potency was inconclusive: 20.6 µM [cytotoxic, single point].
For `CO[C@H]1/C=C/O[C@@]2(C)Oc3c(C)c(O)c4c(O)c(c5c(c4c3C2=O)=NC2(CCN(CC(C)C)CC2)N=5)NC(=O)/C(C)=C/C=C/[C@H](C)[C@H](O)[C@@H](C)[C@@H](O)[C@@H](C)[C@H](OC(C)=O)[C@@H]1C`, the activity (max response) was inactive: -11.1%.
For `CN(C)c1ccccc1CN1CCCN(Cc2ccccc2N(C)C)C1c1ccncc1`, the Potency was active: 28.2 µM.
For `CCN(CC)CCNC(=O)c1ccc(N)cc1`, the activity (max response) was inactive: 13%.
With `Cc1nc(Nc2ncc(C(=O)Nc3c(C)cccc3Cl)s2)cc(N2CCN(CCO)CC2)n1` the Potency was active: 1.84 µM and active: 1.41 µM.
In the case of `Cn1c2cc(S(C)=O)sc2c2cnn(Cc3cccc(N)c3)c(=O)c21` (stereo not given), the Potency is reported as inconclusive: 35.5 µM [cytotoxic, partial curve, poor fit].
For `O=c1c(-c2ccc(O)cc2)coc2cc(O[C@@H]3O[C@H](CO)[C@@H](O)[C@H](O)[C@H]3O)ccc12`, the activity (max response) was inactive: -7.43%.
For `O=C1NC(=O)C(c2cnc3ccccn23)=C1c1cn2c3c(cccc13)CN(C(=O)N1CCOCC1)CC2`, the Potency was inconclusive: 7.08 µM [cytotoxic, partial curve, poor fit].
In the case of `CNC(=O)c1ccccc1Sc1ccc2c(/C=C/c3ccccn3)n[nH]c2c1`, the Potency is reported as inconclusive: 8.2 µM [cytotoxic, partial curve] and inconclusive: 17.8 µM [cytotoxic, partial curve].
For `CC(C)N=C(N)/N=C(\N)Nc1ccc(Cl)cc1`, the Potency was inconclusive: 29.1 µM [cytotoxic, partial curve, poor fit].
With `NC(=O)c1cnc2[nH]ccc2c1NC1C2CC3C[C@H]1CC(O)(C3)C2` (stereo not given in full) the Potency was inconclusive: 22.4 µM [cytotoxic, partial curve].
With `COc1cc(CNC(=O)CCCC/C=C/C(C)C)ccc1O` the Potency was inconclusive: 11.2 µM [cytotoxic, partial curve, poor fit].
With `CCOC(=O)[C@H](CCc1ccccc1)N[C@@H](C)C(=O)N(CC(=O)O)C1Cc2ccccc2C1` the Potency was inconclusive: 23.1 µM [cytotoxic, partial curve, poor fit].
In the case of `O=C(Nc1cccc(Br)c1)c1cccc(S(=O)(=O)N2CCCCCC2)c1`, the Potency is reported as inconclusive: 7.08 µM [cytotoxic, single point].
With `CC(=O)N1CCN(c2ccc(OC[C@H]3CO[C@](Cn4ccnc4)(c4ccc(Cl)cc4Cl)O3)cc2)CC1` the Potency was inconclusive: 25.1 µM [cytotoxic, partial curve, poor fit].
For `COc1ccc(C(Cl)=C(c2ccc(OC)cc2)c2ccc(OC)cc2)cc1`, the Potency was inconclusive: 7.31 µM [cytotoxic, single point].
With `CCC(=O)c1ccc2c(c1)N(CCCN(C)C)c1ccccc1S2` the Potency was inconclusive: 23.1 µM [cytotoxic, single point].
For `Cc1ccc(Nc2cc(-c3cccc(N4C(=O)c5ccccc5C4=O)c3)ncn2)cc1NS(C)(=O)=O`, the Potency was inconclusive: 25.1 µM [cytotoxic, single point].
With `CC1=C2C[C@H]3[C@@H](CC[C@@H]4C[C@H](NS(C)(=O)=O)CC[C@@]43C)[C@@H]2CC[C@@]2(C1)O[C@@H]1C[C@H](C)CN[C@H]1[C@H]2C` the Potency was active: 25.1 µM.
For `CCN[C@H]1C[C@H](C)S(=O)(=O)c2sc(S(N)(=O)=O)cc21`, the activity (max response) was inactive: 3.89% and inactive: 5.72%.
With `N=C(N)c1ccc(OCCCOc2ccc(C(=N)N)cc2)cc1` the Potency was inconclusive: 16.4 µM [cytotoxic, partial curve].
With `CC(c1cc2ccccc2s1)N(O)C(N)=O` (stereo not given) the Potency was inconclusive: 18.4 µM [cytotoxic, single point].
For `COc1cc2c(cc1OC)C(C(C(=O)N(CCc1ccc(OC)c(OC)c1OC)CCc1ccc(OC)c(OC)c1OC)c1ccccc1)=NCC2` (stereo not given), the Potency was inconclusive: 29.1 µM [cytotoxic, single point].
With `C=C1CC[C@@H]2[C@](C)(CO)[C@H](O)CC[C@@]2(C)[C@@H]1C/C=C1/C(=O)OC[C@H]1O` the Potency was inconclusive: 25.1 µM [cytotoxic, single point].
With `c1ccc(CNCc2ccc(CN3CCCNCCNCCCNCC3)cc2)nc1` the Potency was inconclusive: 35.5 µM [cytotoxic, partial curve, poor fit].
